# This is one part of the list.
# What was measured:
# Test in all cases: glycan array binding signal (z-score within array); higher = stronger binding
# Details in all cases: glycan notation: IUPAC condensed, linker removed
# [1] = target: Fuc(a1-2)Gal(b1-4)GlcNAc(b1-3)Gal(b1-4)GlcNAc(b1-2)Man(a1-3)[Fuc(a1-2)Gal(b1-4)GlcNAc(b1-3)Gal(b1-4)GlcNAc(b1-2)Man(a1-6)]Man(b1-4)GlcNAc(b1-4)GlcNAc
# Method in brief: (§1)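 The binding signal is a Z-score computed within each array and averaged over linkers. Arrays of the same protein sequence at different concentrations or buffers were also averaged together. Data originate from 3228 arrays in the Consortium for Functional Glycomics database, kept only where the protein sequence was available.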
# [2] = target: Fuc(a1-2)Gal(b1-4)GlcNAc(b1-3)Gal(b1-4)GlcNAc(b1-3)Gal(b1-4)GlcNAc
# Method in brief: as §1
# [3] = target: Fuc(a1-2)Gal(b1-4)GlcNAc(b1-3)GalNAc
# Method in brief: as §1
# [4] = target: Fuc(a1-2)Gal(b1-4)GlcNAc(b1-3)[Fuc(a1-2)Gal(b1-4)GlcNAc(b1-6)]GalNAc
# Method in brief: as §1
# [5] = target: Fuc(a1-2)Gal(b1-4)GlcNAc(b1-3)[Fuc(a1-3)[Gal(b1-4)]GlcNAc(b1-6)]Gal(b1-4)Glc
# Method in brief: as §1
# [6] = target: Fuc(a1-2)Gal(b1-4)GlcNAc(b1-6)GalNAc
# Method in brief: as §1
# [7] = target: Fuc(a1-2)Gal(b1-4)GlcNAc6S
# Method in brief: as §1
# [8] = target: Fuc(a1-2)Gal(b1-4)[Fuc(a1-3)]GlcNAc
# Method in brief: as §1
# [9] = target: Fuc(a1-2)Gal(b1-4)[Fuc(a1-3)]GlcNAc(b1-2)Man(a1-3)[Fuc(a1-2)Gal(b1-4)[Fuc(a1-3)]GlcNAc(b1-2)Man(a1-6)]Man(b1-4)GlcNAc(b1-4)[Fuc(a1-6)]GlcNAc
# Method in brief: as §1
# [10] = target: Fuc(a1-2)Gal(b1-4)[Fuc(a1-3)]GlcNAc(b1-2)[Fuc(a1-2)Gal(b1-4)[Fuc(a1-3)]GlcNAc(b1-4)]Man(a1-3)[Fuc(a1-2)Gal(b1-4)[Fuc(a1-3)]GlcNAc(b1-2)Man(a1-6)]Man(b1-4)GlcNAc(b1-4)GlcNAc
# Method in brief: as §1
# [11] = target: Fuc(a1-2)Gal(b1-4)[Fuc(a1-3)]GlcNAc(b1-3)Gal(b1-4)[Fuc(a1-3)]GlcNAc
# Method in brief: as §1
# [12] = target: Fuc(a1-2)Gal(b1-4)[Fuc(a1-3)]GlcNAc(b1-3)Gal(b1-4)[Fuc(a1-3)]GlcNAc(b1-3)Gal(b1-4)[Fuc(a1-3)]GlcNAc
# Method in brief: as §1
# [13] = target: Fuc(a1-2)Gal(b1-4)[Fuc(a1-3)]GlcNAc(b1-3)GalNAc
# Method in brief: as §1
# [14] = target: Fuc(a1-2)Gal(b1-4)[Fuc(a1-3)]GlcNAc(b1-3)[Neu5Ac(a2-6)Gal(b1-4)GlcNAc(b1-6)]Gal(b1-4)Glc
# Method in brief: as §1
# [15] = target: Fuc(a1-2)Gal3S(b1-4)GlcNAc
# Method in brief: as §1
# [16] = target: Fuc(a1-2)Gal6S(b1-3)GlcNAc
# Method in brief: as §1
# [17] = target: Fuc(a1-2)Gal6S(b1-3)GlcNAc6S
# Method in brief: as §1
# Fuc(a1-2)Gal6S(b1-4)Glc = target: Fuc(a1-2)Gal6S(b1-4)Glc
# Method in brief: as §1
# [18] = target: Fuc(a1-2)Gal6S(b1-4)Glc6S
# Method in brief: as §1
# Fuc(a1-2)[Gal(a1-3)]Gal = target: Fuc(a1-2)[Gal(a1-3)]Gal
# Method in brief: as §1
# [19] = target: Fuc(a1-2)[Gal(a1-3)]Gal(b1-3)GalNAc
# Method in brief: as §1
# [20] = target: Fuc(a1-2)[Gal(a1-3)]Gal(b1-3)GalNAc(b1-3)Gal(a1-4)Gal(b1-4)Glc
# Method in brief: as §1
# [21] = target: Fuc(a1-2)[Gal(a1-3)]Gal(b1-3)GlcNAc
# Method in brief: as §1
# [22] = target: Fuc(a1-2)[Gal(a1-3)]Gal(b1-3)GlcNAc(b1-2)Man(a1-3)[Fuc(a1-2)[Gal(a1-3)]Gal(b1-3)GlcNAc(b1-2)Man(a1-6)]Man(b1-4)GlcNAc(b1-4)GlcNAc
# Method in brief: as §1
# [23] = target: Fuc(a1-2)[Gal(a1-3)]Gal(b1-3)GlcNAc(b1-2)Man(a1-3)[Fuc(a1-2)[Gal(a1-3)]Gal(b1-3)GlcNAc(b1-2)Man(a1-6)]Man(b1-4)GlcNAc(b1-4)[Fuc(a1-6)]GlcNAc
# Method in brief: as §1
# [24] = target: Fuc(a1-2)[Gal(a1-3)]Gal(b1-3)GlcNAc(b1-3)GalNAc
# Method in brief: as §1
# [25] = target: Fuc(a1-2)[Gal(a1-3)]Gal(b1-3)GlcNAc(b1-6)GalNAc
# Method in brief: as §1
# [26] = target: Fuc(a1-2)[Gal(a1-3)]Gal(b1-4)Glc
# Method in brief: as §1
# [27] = target: Fuc(a1-2)[Gal(a1-3)]Gal(b1-4)GlcNAc
# Method in brief: as §1
# [28] = target: Fuc(a1-2)[Gal(a1-3)]Gal(b1-4)GlcNAc(b1-2)Man
# Method in brief: as §1
# [29] = target: Fuc(a1-2)[Gal(a1-3)]Gal(b1-4)GlcNAc(b1-2)Man(a1-3)[Fuc(a1-2)[Gal(a1-3)]Gal(b1-4)GlcNAc(b1-2)Man(a1-6)]Man(b1-4)GlcNAc(b1-4)GlcNAc
# Method in brief: as §1
# [30] = target: Fuc(a1-2)[Gal(a1-3)]Gal(b1-4)GlcNAc(b1-2)Man(a1-3)[Fuc(a1-2)[Gal(a1-3)]Gal(b1-4)GlcNAc(b1-2)Man(a1-6)]Man(b1-4)GlcNAc(b1-4)[Fuc(a1-6)]GlcNAc
# Method in brief: as §1
# [31] = target: Fuc(a1-2)[Gal(a1-3)]Gal(b1-4)GlcNAc(b1-3)GalNAc
# Method in brief: as §1
# [32] = target: Fuc(a1-2)[Gal(a1-3)]Gal(b1-4)GlcNAc(b1-3)[Fuc(a1-2)[Gal(a1-3)]Gal(b1-4)GlcNAc(b1-6)]GalNAc
# Method in brief: as §1
# [33] = target: Fuc(a1-2)[Gal(a1-3)]Gal(b1-4)GlcNAc(b1-6)GalNAc
# Method in brief: as §1
# [34] = target: Fuc(a1-2)[Gal(a1-3)]Gal(b1-4)[Fuc(a1-3)]Glc
# Method in brief: as §1
# [35] = target: Fuc(a1-2)[Gal(a1-3)]Gal(b1-4)[Fuc(a1-3)]GlcNAc
# Method in brief: as §1
# [36] = target: Fuc(a1-2)[Gal(a1-3)]Gal(b1-4)[Fuc(a1-3)]GlcNAc(b1-3)GalNAc
# Method in brief: as §1
# [37] = target: Fuc(a1-2)[Gal(a1-4)]Gal(b1-4)GlcNAc
# Method in brief: as §1
# [38] = target: Fuc(a1-2)[GalNAc(a1-3)]Gal
# Method in brief: as §1
# [39] = target: Fuc(a1-2)[GalNAc(a1-3)]Gal(b1-3)GalNAc(a1-3)[Fuc(a1-2)]Gal(b1-4)GlcNAc
# Method in brief: as §1
# [40] = target: Fuc(a1-2)[GalNAc(a1-3)]Gal(b1-3)GalNAc(b1-3)Gal(a1-4)Gal(b1-4)Glc
# Method in brief: as §1
# [41] = target: Fuc(a1-2)[GalNAc(a1-3)]Gal(b1-3)GlcNAc
# Method in brief: as §1
# [42] = target: Fuc(a1-2)[GalNAc(a1-3)]Gal(b1-3)GlcNAc(b1-2)Man(a1-3)[Fuc(a1-2)[GalNAc(a1-3)]Gal(b1-3)GlcNAc(b1-2)Man(a1-6)]Man(b1-4)GlcNAc(b1-4)GlcNAc
# Method in brief: as §1
# [43] = target: Fuc(a1-2)[GalNAc(a1-3)]Gal(b1-3)GlcNAc(b1-2)Man(a1-3)[Fuc(a1-2)[GalNAc(a1-3)]Gal(b1-3)GlcNAc(b1-2)Man(a1-6)]Man(b1-4)GlcNAc(b1-4)[Fuc(a1-6)]GlcNAc
# Method in brief: as §1
binder,measurement,setting,value
"Sebin2 (Coprinopsis cinerea), A8PE78 (protein) MTTPFYAYCHNVQDDNTWRLGLVFANRSTADEWWRAISEATSSIPITKSITRVTPQYYTHDIRVWNMYNFFVDGNIKSISDKFRGRLFITLEYDRSGRGVSVFPPLHIVDHVSGNWYYIRSKTAPHLFWFYDETRNAIYASKEKRTRFKVSIRNPSPQTPKDAIMINSDDVVIHIKESLYVGVDSYLGHIIPTRAYRTFKFGELEGGAIAGIEVAENAEERCSSTFDGASLYFVGPDSSSPGEPWELV",glycan array binding signal (z-score),[1],-0.414
same,glycan array binding signal (z-score),[2],-0.116
same,glycan array binding signal (z-score),[3],-0.141
same,glycan array binding signal (z-score),[4],0.577
same,glycan array binding signal (z-score),[5],0.351
same,glycan array binding signal (z-score),[6],-0.068
same,glycan array binding signal (z-score),[7],-0.027
same,glycan array binding signal (z-score),[8],0.122
same,glycan array binding signal (z-score),[9],-0.178
same,glycan array binding signal (z-score),[10],0.336
same,glycan array binding signal (z-score),[11],0.623
same,glycan array binding signal (z-score),[12],-0.227
same,glycan array binding signal (z-score),[13],0.057
same,glycan array binding signal (z-score),[14],-0.237
same,glycan array binding signal (z-score),[15],-0.238
same,glycan array binding signal (z-score),[16],-0.062
same,glycan array binding signal (z-score),[17],0.437
same,glycan array binding signal (z-score),Fuc(a1-2)Gal6S(b1-4)Glc,-0.035
same,glycan array binding signal (z-score),[18],-0.75
same,glycan array binding signal (z-score),Fuc(a1-2)[Gal(a1-3)]Gal,-0.23
same,glycan array binding signal (z-score),[19],0.288
same,glycan array binding signal (z-score),[20],0.225
same,glycan array binding signal (z-score),[21],-0.084
same,glycan array binding signal (z-score),[22],-0.103
same,glycan array binding signal (z-score),[23],0.09
same,glycan array binding signal (z-score),[24],-0.042
same,glycan array binding signal (z-score),[25],-0.148
same,glycan array binding signal (z-score),[26],0.343
same,glycan array binding signal (z-score),[27],-0.332
same,glycan array binding signal (z-score),[28],-0.146
same,glycan array binding signal (z-score),[29],0.504
same,glycan array binding signal (z-score),[30],-0.196
same,glycan array binding signal (z-score),[31],-0.123
same,glycan array binding signal (z-score),[32],4.59
same,glycan array binding signal (z-score),[33],-0.321
same,glycan array binding signal (z-score),[34],-0.403
same,glycan array binding signal (z-score),[35],-0.033
same,glycan array binding signal (z-score),[36],0.289
same,glycan array binding signal (z-score),[37],-0.002
same,glycan array binding signal (z-score),[38],-0.171
same,glycan array binding signal (z-score),[39],-0.066
same,glycan array binding signal (z-score),[40],0.203
same,glycan array binding signal (z-score),[41],-0.055
same,glycan array binding signal (z-score),[42],-0.214
same,glycan array binding signal (z-score),[43],0.082

# From the supplement of paper PMC8728848
